Measurements taken from PubChem BioAssay AID1508624 (National Center for Advancing Translational Sciences (NCATS), 2021).
In all, about 48,000 compounds went through this assay and about 120 (0.25%) were called active. Roughly 4% stayed inconclusive and do not appear here. The call rests on the fitted dose curve; in most records, active means well fitted activation curve with a large enough effect; inconclusive means small, poorly fitted or top-dose-only effect, or another doubt; inactive means no such curve, though single readings can be large or run the other way. The list shows a part of the results.

Experiment: Primary qHTS for Identification of Small Molecule Activators of Huntingtin-Antisense Promoter Activity; further: nearly all actives have a fitted effect of over 55% in size
Details: HEK293 HTT-AS promoter firefly luciferase reporter, 24 h; series mostly up to 57.5 µM; activity change, positive = activation: at the top concentration
Outline: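 HEK293 Fluc reporter, 2,500 cells/well, 24 h pre-culture; cpds up to 57.5 uM final, 24 h 37 degrees C; Dual-Glo, 10 min RT; normalized vehicle = 0%, zero RLU = -100%.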
Potency means the concentration at half of the fitted maximal effect.

| SMILES | activity change, positive = activation | Potency |
| --- | --- | --- |
| COc1ccc(NC(=O)Cn2c(C)c3cnn(-c4ccccc4)c(=O)c3c2C)c(OC)c1 | inactive: -11% |  |
| Cc1ccc(N(CC(=O)NC(C)c2ccccc2)S(=O)(=O)c2c(C)noc2C)cc1 (stereo not given) | inactive: -21.1% |  |
| Cc1cccc(-c2noc(C3CC(=O)N(c4ccc5c(c4)OCCO5)C3)n2)c1 (stereo not given) | inactive: 1.77% |  |
| CCOc1ccc(C2c3c(-c4ccccc4O)n[nH]c3C(=O)N2Cc2ccncc2)cc1 (stereo not given) | inactive: -42.3% |  |
| CCc1ccc(C(=O)c2cn(CC(=O)Nc3ccc(F)cc3)c3cc4c(cc3c2=O)OCO4)cc1 | inactive: -26.6% |  |
| Cc1cc(OCC(=O)Nc2sc3c(c2C(N)=O)CCCC3)ccc1C(C)C | inactive: -13.2% |  |
| Cc1cc(C)c2c(=O)cc(CSCC(=O)Nc3nnc(C)s3)[nH]c2c1 | inactive: -10.5% |  |
| CCCNC(=O)Nc1cc(C(=O)NCc2cccc(OCC)c2)ccc1N1CCCC1 | inactive: 1.44% |  |
| COc1ccc(N(C)C(=O)NCc2noc3ccc(C)cc23)c(OC)c1 | inactive: -9.24% |  |
| COc1ccc(C(=O)CCC(=O)Nc2ccccc2C)cc1 | inactive: 4.84% |  |
| COc1ccccc1NC(=O)CSCc1cc(=O)c2c(C)cc(C)cc2[nH]1 | inactive: -10.8% |  |
| Cn1cc(C[C@@H](N)C(=O)O)c2ccccc21 | inactive: -6.63% [at 25.1 µM, percent change from vehicle, -100% = no light] |  |
| Cc1cccc(NC(=O)C2CCCN(S(=O)(=O)c3c(C)noc3/C=C/N(C)C)C2)c1C (stereo not given) | inactive: -14% |  |
| CCC(Sc1nncn2c1cc1sccc12)C(=O)Nc1cccc(OC)c1 (stereo not given) | inactive: -34.8% |  |
| CC(C)(C)C1CCc2nc(NC(=O)Cc3ccc(Cl)cc3)sc2C1 (stereo not given) | inactive: -13% |  |
| CC(C)(C)c1ccc(C(=O)Nc2ccccc2C(=O)OCc2cc(=O)n3ccsc3n2)cc1 | inactive: -7.95% |  |
| Cc1ccc(CN2CCN(C3CCN(C(=O)OC(C)(C)C)CC3)C(=O)C2=O)cc1 | inactive: -13.5% |  |
| C/C(=C(\CCOP(=O)(O)O)SC(=O)c1ccccc1)N(C=O)Cc1cnc(C)nc1N | inactive: 1.76% [at 6 µM, percent change from vehicle, -100% = no light] |  |
| CCOC(=O)CC(NC(=O)Cn1nnc(-c2ccccc2C)n1)c1ccc(OC)cc1 (stereo not given) | inactive: -16% |  |
| Cc1cc2nc3c(=O)n(C)c(=O)n(C)c3nc2cc1N=CN(C)C | inactive: -6.16% |  |
| CCC(=O)N1CCc2cc(Br)cc(S(=O)(=O)CCC(=O)Nc3ccccc3C)c21 | inactive: 9.98% |  |
| Cc1noc(-c2ccccc2OCC(=O)Nc2cccc([N+](=O)[O-])c2)n1 | inactive: 2.34% |  |
| Cc1ccccc1NC(=O)CC1C(=O)NCCN1C(=O)c1cccc(Cl)c1 (stereo not given) | inactive: -0.186% |  |
| COC(=O)CCc1sc(Nc2ccc(OC)cc2)nc1-c1ccc(OC)cc1 | inactive: -9.3% |  |

| SMILES | activity change, positive = activation | Potency |
| --- | --- | --- |
| CC(=O)c1ccc(N2CCN(C(=O)NCc3noc4ccc(C)cc34)CC2)cc1 | inactive: -19.7% |  |
| CCOC(=O)C1CCCN(S(=O)(=O)c2ccc3[nH]c(=O)ccc3c2)C1 (stereo not given) | inactive: -25.9% |  |
| Cc1ccc(S(=O)(=O)NCc2nc3nc(C)cc(C)n3n2)c(C)c1 | inactive: -5.08% |  |
| CCOC(=O)c1ccccc1NC(=O)CSc1nc2ncccc2[nH]1 | inactive: -10.2% |  |
| CCN1c2ccccc2-c2nc(SCC(=O)Nc3ccc(C)c(Cl)c3)ncc2S1(=O)=O | inactive: -12.1% |  |
| COc1ccc(N2CCN(C(=O)CCS(=O)(=O)c3cc4c(cc3Cl)NC(=O)CO4)CC2)cc1 | inactive: -24.7% |  |
| CC(=O)c1cc(C(=O)Nc2cccc(C)c2)c2ccccn12 | inactive: -2.76% |  |
| COc1ccc(-c2nnn3c2nc(N2CCCC(C)C2)c2ccccc23)cc1 (stereo not given) | inactive: -11.2% |  |
| Cc1ccc(C)c(N(C)C(=O)C2CCN(S(=O)(=O)c3cccc4nsnc34)CC2)c1 | inactive: -24% |  |
| COCCNC(=O)CCC(=O)NNc1nc2ccccc2c2nc(-c3ccccc3)nn12 | inactive: 3.52% |  |
| Clc1ccccc1-c1nc(Nc2ccccc2)nc2ccc(Br)cc12 | inactive: -23.3% |  |
| Cc1ccc(NC(=O)N2CCC(n3c(C)nc4cccnc43)CC2)c(Cl)c1 | inactive: -1.67% |  |
| CCOc1ccc(NC(=O)CSc2ncc3c(n2)-c2ccccc2N(C)S3(=O)=O)cc1 | inactive: 10.7% |  |
| Cc1ccc(NC(=O)c2cc(S(=O)(=O)N3CCOCC3)c(Cl)cc2Cl)cc1 | inactive: -52% |  |
| Cc1cc(C)cc(NC(=O)C2CCN(S(=O)(=O)c3cccc4nonc34)CC2)c1 | inactive: -8.68% |  |
| Nc1c2c(nc3ccccc13)CCCC2 | inactive |  |
| COc1ccc(CNC(=O)Nc2cn(CC(C)C)c(=O)c3ccccc23)c(OC)c1 | inactive: -12% |  |
| CCCCC(CC)COC(=O)C(C#N)=C(c1ccccc1)c1ccccc1 (stereo not given) | inactive |  |
| CCc1ccc(CNC(=O)c2ccc(CSc3nc4ccncc4n3Cc3ccccc3)cc2)cc1 | inactive: -20.5% |  |
| CCC(Oc1ccccc1)C(=O)Nc1nnc(S(=O)(=O)Nc2ccccc2)s1 (stereo not given) | inactive: -14.9% |  |
| CC(=O)c1ccc(N2CCN(C(=O)C3CCN(S(=O)(=O)c4cccc5nonc45)CC3)CC2)cc1 | inactive: -18% |  |
| O=c1c2c3c(sc2nnn1Cc1ccc(Br)cc1)CCCC3 | inactive: -13.5% |  |
| O=S(=O)(NCCc1csc(-c2ccc(F)cc2)n1)c1ccc(Cl)cc1 | inactive: -44% |  |
| CCOc1ccccc1NC(=O)Cn1c(=O)ccc2cc(S(=O)(=O)N3CCC(C)CC3)ccc21 | inactive: -30.3% |  |

| SMILES | activity change, positive = activation | Potency |
| --- | --- | --- |
| CCOC(=O)c1ccc(NC(=O)CCc2c(C)nc3c(c(C)nn3C)c2C)cc1 | inactive: -30% |  |
| CCOC(=O)C1CCN(C(=O)C2COc3ccccc3C2)CC1 (stereo not given) | inactive: -14.9% |  |
| Cc1ccc(OCCCn2c(C3CC(=O)N(c4cccc(Cl)c4)C3)nc3ccccc32)c(C)c1 (stereo not given) | inactive: -29.3% |  |
| CC1CCCCN1CCCOC(=O)c1ccc(OC2CCCCC2)cc1 (stereo not given) | inactive: -15.5% |  |
| O=C(CSc1nccn1Cc1ccc(Cl)cc1)NC1CCCC1 | inactive: -15.5% |  |
| Cc1ccc(CN2CCSc3ccc(C(=O)N4CCN(c5cccc(C)c5C)CC4)cc32)cc1 | inactive: -13.3% |  |
| COc1ccc(-c2cnc(C)o2)cc1S(=O)(=O)Nc1ccc(C)c(F)c1 | inactive: -42.5% |  |
| O=C(c1cc2ccccc2oc1=O)N(Cc1cccc(Cl)c1)C1CCS(=O)(=O)C1 (stereo not given) | inactive: -5.63% |  |
| CCOC(=O)c1ccc(NC(=O)CC2C(=O)N(c3ccccc3)C(=O)N2Cc2cccs2)cc1 (stereo not given) | inactive: -8.82% |  |
| COc1ccc(N2CCN(CC(O)COc3ccc(C(C)(C)C)cc3)CC2)cc1 (stereo not given) | inactive: 3.72% [at 11.5 µM, percent change from vehicle, -100% = no light] |  |
| Cc1ccc(S(=O)(=O)c2[nH]c(-c3ccccc3)nc2SCC(=O)O)cc1 | inactive: -15.7% |  |
| CCOc1ccc(CNC(=O)c2ccc3nc(Cc4ccc(OC)cc4)oc3c2)cc1OC | inactive: -22.2% |  |
| CCN(C(=O)Cc1c(C(=O)O)[nH]c2ccccc12)c1ccc(OC)cc1 | inactive: -6.95% |  |
| Cc1ccc(Cl)cc1NC(=O)c1ccc(-c2nc(CSc3ccccc3)c(C)o2)cc1 | inactive: -32.5% |  |
| CCc1ccc(CN(C(=O)c2nc(SC)ncc2Cl)C2CCS(=O)(=O)C2)cc1 (stereo not given) | inactive: -17.9% |  |
| CCC(=O)N1c2ccccc2CC1C(=O)N1CCN(c2ccccc2)CC1 (stereo not given) | inactive: -10.7% |  |
| CC(C)Cc1nn2c(=O)cc(COC(=O)c3ccc(NC(=O)c4cccs4)cc3)nc2s1 | inactive: 2.9% |  |
| O=C1NC(=O)[C@@H](c2cn3c4c(cccc24)CCC3)[C@H]1c1c[nH]c2ccccc12 | inactive: -43.2% |  |
| Cc1ccc(OCc2nc3ccccc3n2CC(C)C)cc1 | inactive: 20.3% |  |
| COc1ccc(CCNC(=O)CCn2c(=O)c3cccn3c3ccc(F)cc32)c(OC)c1OC | inactive: -19% |  |
| CCOc1ccccc1CNC(=O)Nc1cn(CC(C)C)c(=O)c2ccccc12 | inactive: -18.4% |  |
| CC(Oc1ccccc1)C(=O)Nc1nc2ccc(S(N)(=O)=O)cc2s1 (stereo not given) | inactive: -9.57% |  |
| Cc1cc2c(cc1S(=O)(=O)NCc1ccc(N(C)C)cc1)OCC(=O)N2 | inactive: -23.4% |  |
| COc1ccc(N(CC(=O)NC(C)c2ccccc2)S(=O)(=O)c2c(C)noc2C)cc1 (stereo not given) | inactive: -12% |  |

| SMILES | activity change, positive = activation | Potency |
| --- | --- | --- |
| CCCN(C(=O)c1cc2c(s1)-c1ccccc1SC2)c1ccccc1F | inactive: -28% |  |
| CC1(c2ccc(Cl)cc2)CC(C)(C)N(C(=O)c2ccccc2)c2ccccc21 (stereo not given) | inactive: -39.8% |  |
| Cc1ccc(CN2CCC(CNc3ncnc4onc(-c5ccc(Cl)cc5)c34)CC2)cc1 | inactive: -14.5% |  |
| COc1cccc(-n2ccnc2SCC(=O)Nc2cccc(C)c2C)c1 | inactive: -16.1% |  |
| CCc1ccc(NC(=O)Cn2cnc3sc(C)c(S(=O)(=O)N4CCC(C)CC4)c3c2=O)cc1 | inactive: -1.39% |  |
| CCCC(=O)NCC(c1ccc2c(c1)OCO2)N1CCN(c2ccc(F)cc2)CC1 (stereo not given) | inactive: -18.7% |  |
| COc1ccc(-n2ncc(C(=O)NCc3ccccc3)c2C2CCN(C(=O)OC(C)(C)C)CC2)cc1 | inactive: -20.5% |  |
| COc1ccc(-c2nc3c(C#N)c[nH]n3c2NC2CCCCC2)c(OC)c1 | inactive: -16.2% |  |
| Cc1ccc(NC(=O)CN2CCCN(Cc3cc(C)ccc3C)S2(=O)=O)c(Cl)c1 | inactive: -38% |  |
| COc1cccc(N2CCN(C(=O)C3CCC(CNS(=O)(=O)c4ccc(Br)s4)CC3)CC2)c1 (stereo not given) | inactive: -41.4% |  |
| COCCCNC(=O)Cn1c(=O)n(-c2ccc(C)cc2)c(=O)c2c1c1cc(C)ccc1n2C | inactive: -6.6% |  |
| O=c1cc(-c2ccccc2)oc2cc(O)cc(O)c12 |  | active: 24.3 µM |
| CCS(=O)(=O)N1CC(=O)N(c2ccccc2C)C(C)(C(=O)NC2CCCCC2)C1 (stereo not given) | inactive: -13.9% |  |
| COc1ccc(NC(=O)CSc2nnc(-c3ccc(C)cc3)o2)cc1 | inactive: -7.01% |  |
| Cc1ccc(Cl)cc1N1CCN(C(=O)c2cn(C3CCCCC3)c(=O)c3c2c2ccccc2n3C)CC1 | inactive: -18.5% |  |
| CN(C)c1ccc(C(CNC(=O)COc2ccc(Cl)cc2)N2CCOCC2)cc1 (stereo not given) | inactive: -4.48% |  |
| CCOC(=O)c1noc2ncnc(N3CCN(c4ccccc4OC)CC3)c12 | inactive: -3.41% |  |
| COc1cc(C2NC(=O)NC(C)=C2C(=O)Nc2cc(C)cc(C)c2)ccc1O (stereo not given) | inactive: -4.04% |  |
| COc1ccc2c(c1)c(C1=C(c3c[nH]c4ccccc34)C(=O)NC1=O)cn2CCCN(C)C | inactive: -7.92% |  |
| CCOC(=O)c1c(C)c(-c2ccccc2)n(CC(=O)Nc2cc(OC)cc(OC)c2)c1C | inactive: -31.2% |  |
| O=c1ccn([C@@H]2O[C@H](CO)[C@H](O)[C@H]2O)c(=O)[nH]1 | inactive: 4.46% |  |
| CC(C)(C)NS(=O)(=O)c1ccc2nc(NC(=O)c3cccnc3)sc2c1 | inactive: 4.52% |  |
| COC(=O)CNC(=O)Nc1cc(C(=O)NCc2ccc(C)cc2)ccc1N1CCCC1 | inactive: 3.07% |  |
